Source: publication PMC10040811
No constants are given. Whether binding was seen depends on the method and setting. Binding seen in cells or lysates may run through a third protein. Where a sequence is shown, tags or fusion partners need not be part of it.

Protein sequences, listed by entry. Tags and fused reporters are not part of them. Lines headed by an entry give the natural chain unless they say otherwise; changes in a name come on top. Chains listed by the source or under a name are the forms on record and can include a tag or linker.
EGFP-tagged rat s-afadin (O35889, form named): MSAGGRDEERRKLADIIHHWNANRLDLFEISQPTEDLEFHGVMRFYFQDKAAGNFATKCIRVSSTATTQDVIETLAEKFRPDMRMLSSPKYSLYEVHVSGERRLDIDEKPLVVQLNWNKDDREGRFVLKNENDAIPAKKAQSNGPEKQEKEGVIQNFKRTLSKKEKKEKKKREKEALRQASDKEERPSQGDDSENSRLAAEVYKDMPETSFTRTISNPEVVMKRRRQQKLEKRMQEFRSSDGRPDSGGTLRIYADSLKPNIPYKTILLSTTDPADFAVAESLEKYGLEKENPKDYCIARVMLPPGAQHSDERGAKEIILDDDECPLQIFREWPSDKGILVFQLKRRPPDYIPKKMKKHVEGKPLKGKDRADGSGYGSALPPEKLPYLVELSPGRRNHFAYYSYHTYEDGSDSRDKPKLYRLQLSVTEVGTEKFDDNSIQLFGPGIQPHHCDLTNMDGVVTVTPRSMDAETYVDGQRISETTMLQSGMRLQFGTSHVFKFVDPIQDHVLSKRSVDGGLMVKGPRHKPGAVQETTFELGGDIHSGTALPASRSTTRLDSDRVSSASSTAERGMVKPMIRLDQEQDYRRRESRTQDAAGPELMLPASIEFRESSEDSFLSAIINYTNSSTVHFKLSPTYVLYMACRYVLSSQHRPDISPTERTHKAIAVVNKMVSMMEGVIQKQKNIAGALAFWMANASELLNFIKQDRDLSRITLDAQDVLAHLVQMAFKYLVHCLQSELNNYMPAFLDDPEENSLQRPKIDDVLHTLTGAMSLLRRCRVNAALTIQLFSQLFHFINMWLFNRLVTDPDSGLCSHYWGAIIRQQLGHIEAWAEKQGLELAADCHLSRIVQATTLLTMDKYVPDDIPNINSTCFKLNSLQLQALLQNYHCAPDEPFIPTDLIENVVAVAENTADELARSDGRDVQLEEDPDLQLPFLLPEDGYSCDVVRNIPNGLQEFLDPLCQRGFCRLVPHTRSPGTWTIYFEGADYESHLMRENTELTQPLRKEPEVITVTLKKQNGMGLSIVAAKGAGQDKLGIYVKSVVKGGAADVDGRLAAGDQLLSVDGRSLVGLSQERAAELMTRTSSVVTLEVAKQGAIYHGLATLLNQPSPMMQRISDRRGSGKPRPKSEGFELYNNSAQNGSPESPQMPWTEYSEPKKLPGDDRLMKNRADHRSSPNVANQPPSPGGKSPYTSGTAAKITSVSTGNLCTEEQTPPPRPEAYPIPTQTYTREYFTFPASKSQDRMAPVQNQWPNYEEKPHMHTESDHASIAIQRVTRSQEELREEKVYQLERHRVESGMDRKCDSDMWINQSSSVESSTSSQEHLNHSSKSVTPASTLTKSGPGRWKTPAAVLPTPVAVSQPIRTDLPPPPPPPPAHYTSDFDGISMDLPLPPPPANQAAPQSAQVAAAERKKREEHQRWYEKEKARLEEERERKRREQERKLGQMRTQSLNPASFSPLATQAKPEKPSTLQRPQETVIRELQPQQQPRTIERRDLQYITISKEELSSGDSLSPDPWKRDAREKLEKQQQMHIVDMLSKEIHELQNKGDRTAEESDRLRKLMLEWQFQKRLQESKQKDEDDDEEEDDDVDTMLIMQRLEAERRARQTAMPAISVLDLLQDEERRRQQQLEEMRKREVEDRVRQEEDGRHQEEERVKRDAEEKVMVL

Target: EGFP-tagged rat s-afadin (rat) (UniProt O35889)
Assay: co-IP; HEK293 cells co-expressing EGFP-tagged afadin variants and V5-tagged MAGUIN variants; lysate in 0.25% DDM in buffer A; GFP pAb and protein-G Sepharose, 4 °C; blot with the MAGUIN pAb or V5 mAb

B1: V5-tagged MAGUIN-2-N (aa 1-572) (domain or fragment, UniProt Q80YA9-1 1-572)
chain: MALIMEPVSKWSPSQVVDWMKGLDDCLQQYIKNFEREKISGDQLLRITHQELEDLGVSRIGHQELILEAVDLLCALNYGLETENLKTLSHKLNASAKNLQNFITGRRRSGHYDGRTSRKLPNDFLTSVVDLIGAAKSLLAWLDRSPFAAVTDYSVTRNNVIQLCLELTTIVQQDCTVYETENKILHVCKTLSGVCDHIISLSSDPLVSQSAHLEVIQLANIKPSEGLGMYIKSTYDGLHVITGTTENSPADRCKKIHAGDEVIQVNHQTVVGWQLKNLVNALREDPSGVILTLKKRPQSMLTSAPALLKNMRWKPLALQPLIPRSPTSSVATPSSTISTPTKRDSSALQDLYIPPPPAEPYIPRDEKGNLPCEDLRGHMVGKPVHKGSESPNSFLDQEYRKRFNIVEEDTVLYCYEYEKGRSSSQGRRESTPTYGKLRPISMPVEYNWVGDYEDPNKMKRDSRRENSLLRYMSNEKIAQEEYMFQRNSKKDTGKKSKKKGDKSNSPAHYSLLPSLQMDALRQDIMGTPVPETTLYHTFQQSSLQHKSKKKNKGAISGKSKRRISCKDLGRGD
For B1, the binding was “no binding”.
